The record followed here is publication PMC12136788.

The chains are these.
T1: UNK ZnF1-3 (human, UniProt Q9C0B0 31-174)
T1 sequence: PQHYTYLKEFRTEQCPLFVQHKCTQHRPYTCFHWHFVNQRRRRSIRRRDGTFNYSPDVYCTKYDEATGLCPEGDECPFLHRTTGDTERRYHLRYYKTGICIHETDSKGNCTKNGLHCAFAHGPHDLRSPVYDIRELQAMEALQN

B1: 15138320_15138440_3267_CDS_ENSMUSG00000046111_ENSMUST00000161132|mouse|control|control (ssRNA)
RNA: GGGAGUUCUACAGUCCGACGAUCAUAUAAAAGUAAUGUCUCUUGACCAUCACGUCUAGGCGGAAUCAUACUCCUCUGUCUAGUCAGCUGCUCUUGAAGCAACUUUAAAGUGUUCUGGAGAGGUAGGGUCUGCUGUAGAAAACCCAACAGAGGAUUGAGCAUCA
B2: chr7:36427155:36427156:-_ENSMUSG00000030417_ENSMUST00000118501|mus_mus|FALSE|FALSE (ssRNA)
RNA: GGGAGUUCUACAGUCCGACGAUCCAAAGUAAACAUUUACAAGGUGGUGACUGUCCUAGACACUGCUCCGGAAGUCUGUCUAAGUGCGUCCUCUUAGUAAUCGGCGUCGUCUUCAUCGGAGUCCAUUACUUUUCUUCUGUUGAACAACAGAGGAUUGAGCAUCA
B3: chr22:32879901:32879902:+_ENSG00000100225_ENST00000397426|hu_mus|hu_hu_hu_mus_False|58_98 (ssRNA)
RNA: GGGAGUUCUACAGUCCGACGAUCCUCUUCCAUACUCGCAUUAUCUUGAAUUGACUCAGCUUCAACAUUUUGACUAGGCCCUAACAUACUGUCAUCAGUCCAGGCAUCAAAUGGGGUGGCCUGUCCUUGGGAUGAAUCAGUCCCCAACAGAGGAUUGAGCAUCA
B4: chr12:86613709:86613710:-_ENSMUSG00000008822_ENSMUST00000008966|mus_mus|FALSE|FALSE (ssRNA)
RNA: GGGAGUUCUACAGUCCGACGAUCCUGCAGUUGCCCUUGCACGGUGCCCCGGUCGGUGUUCUGAACCCAGCCCACCAAACCUAGCUUUUUACCCUCAGCCUGAGUGUACUUGCGGAAAAACACCCCUUGAACCUUUCCAAAAAUCAACAGAGGAUUGAGCAUCA
B5: chr2:202488911:202488912:-_ENSG00000155755_ENST00000286196|hu_mus|hu_hu_hu_mus_False|78_78 (ssRNA)
RNA: GGGAGUUCUACAGUCCGACGAUCAUUGAAACAUUUUUCAUAAUCUCCAGUAGCAUUCAGUAUUAUAGUAACAAAAGCUCAAUUGUAAAUACAUGUAUCUUAUAAAAAUACACUUAAAAACACGAGUGGGGAGCGCAGGCGCCACAACAGAGGAUUGAGCAUCA
B6: chr22:38894135:38894136:-_ENSG00000100201_ENST00000396821|hu_mus|FALSE|FALSE (ssRNA)
RNA: GGGAGUUCUACAGUCCGACGAUCAUAAUCGUCAGCCACCUGCUGCACCUGCUGCGCAAGCUCUCUGGUAGGAGCCAGCACUAGACAAAUUGGACCAUCUCCUCUUUCCAAGUAUGGCUGGUGGUUUAUAUGAACAAUCGCAGGCAACAGAGGAUUGAGCAUCA
B7: 10697589_10697709_468_CDS_ENSG00000111845_ENST00000379568|human|control|control (ssRNA)
RNA: GGGAGUUCUACAGUCCGACGAUCCACUAGAGCCCCAUGCUCAAUCUUCUUUUUCAUGUCAUAAAUGUGAAUUGUUUCAUCUUUGCUCCCAGUGACCACAAAACGACUAUUUACAGCUACUGCUGACAAGGAGGCAGUGUGAGCCAACAGAGGAUUGAGCAUCA
B8: chr7:56126341:56126342:+_ENSG00000146731_ENST00000540286|hu_mus|hu_hu_hu_mus_True|38_78 (ssRNA)
RNA: GGGAGUUCUACAGUCCGACGAUCCAUGUUUCUCCUCUUGGCUCUGCGCAGAGCUACUAUGCCUUCUUUCGCAAGGGCAUCUAAGGAAAAGGGGUCAAUUCCCUUUUGAUUAAUAACGACAAAUCCUUUAUCUGAGUCACCACACAACAGAGGAUUGAGCAUCA
B9: chrX:98862621:98862622:+_ENSMUSG00000034160_ENSMUST00000044475|mus_hu|mus_mus_mus_hu_False|28_38 (ssRNA)
RNA: GGGAGUUCUACAGUCCGACGAUCCUGCAUCUCCUUUAGAGUGUUUCCCAUAUUAGAGUAGGCAUCAGCAAAGGUAGGACUGAUUCGAAUAGCCUCCUUAUAGUGCAUCAGUGCUUCCUGCAGUUUUCCCUGCUGCUGCAGUACCAACAGAGGAUUGAGCAUCA
B10: chr11:87793471:87793472:-_ENSMUSG00000020483_ENSMUST00000020775|mus_mus|mus_mus_mus_hu_False|78_98 (ssRNA)
RNA: GGGAGUUCUACAGUCCGACGAUCUGGACUUGAAAAUAAAAAAAAUAGCUGGAUCCCCCCACCCCUUACAUUGUCAACCCUACACGAGAGUUUUGAAGGCGACUCAUGAAAAUCAGCAGCUCAAACGGCAAUGACCACCCCACCCAACAGAGGAUUGAGCAUCA
B11: chr17:65740002:65740003:+_ENSG00000130935_ENST00000581375|hu_hu|hu_hu_hu_mus_False|28_78 (ssRNA)
RNA: GGGAGUUCUACAGUCCGACGAUCAACAAAUCUUUCUUCCCUGGACGAACAGGAAGACAUAAAAGAGAAAAAAUAUAUAUCCAUCAAGUUAGGUGUGGUGGCCACACAGAGCUCCAGAGCACUUUGGGAGGUGGAUCUCUGAGUCAACAGAGGAUUGAGCAUCA
B12: chr12:123254070:123254071:+_ENSG00000139726_ENST00000280557|hu_hu|FALSE|FALSE (ssRNA)
RNA: GGGAGUUCUACAGUCCGACGAUCGAGCCGAGAUCGCACCACUGCAUUCCAGCCCAGGCAACAGUGCGAGACUCUGUCAAAAAAAAAAAAGAGAGAGAGAGAGAGAGAGAAAGUCAGUACCAAAUGACCAAAAUUUUUUAUUUGCAACAGAGGAUUGAGCAUCA
B13: 106241872_106241992_1621_CDS_ENSMUSG00000046079_ENSMUST00000060531|mouse|control|control (ssRNA)
RNA: GGGAGUUCUACAGUCCGACGAUCGUCGUUCUUGACAUCCGGGAUGUCGCUGAAGCUGCUCUCCUCCCGGACUUUCUCAAACGAGUACUCCUUCAGAGGGAUCCUGAAUAGCCAGAAGAGAGUGUAGAGGCAGAUAAAGCCGUACAACAGAGGAUUGAGCAUCA
B14: 92773732_92773852_88_5pUTR_ENSMUSG00000008398_ENSMUST00000008542|mouse|control|control (ssRNA)
RNA: GGGAGUUCUACAGUCCGACGAUCCCUGCUCACUUCCUUUACUGCAUUAUUCCCCAGGCGGUGUGCAGUCUGUGUAAACAGGCUUUUCCGCCCCGCGCCGUGCGCCCGGGCCGCGGCUGUGCGCCGGGGCUGCCCGCCCAGACCCAACAGAGGAUUGAGCAUCA

Some of the results follow.

In this test the target is T1, UNK ZnF1-3. Kind of test: nsRBNS (natural sequence RNA bind-n-seq); RBNS binding buffer (assumed for nsRBNS): 25 mM Tris pH 7.5, 150 mM KCl, 3 mM MgCl2, 0.01% Triton X-100, 500 ug/ml BSA, 20 U/ml SUPERase-In, 4 C; UNK is unkempt and MSI1 is Musashi-1; names of the RNAs are library labels; protein concentration not given here; high values mean tight binding.
As to B1, the binding signal is 0.696 enrichment R.

Take B2: the binding signal came out at 0.676 enrichment R.

B3: the binding signal is 1.24 enrichment R.

In turn, B4 had a binding signal of 1.08 enrichment R.

The molecule B5 returned a binding signal of 0.984 enrichment R.

In the case of B6, the binding signal stood at 0.798 enrichment R.

B7 showed a binding signal of 1.31 enrichment R.

B8 returned a binding signal of 0.681 enrichment R.

As to B9, the binding signal was found to be 0.984 enrichment R.

B10 displayed a binding signal of 3.02 enrichment R.

The molecule B11 had a binding signal of 2.33 enrichment R.

B12 displayed a binding signal of 1.61 enrichment R.

Molecule B13 came in with a binding signal of 1.04 enrichment R.

B14: the binding signal was found to be 0.889 enrichment R.
